Results reported in EPA's CvTdb concentration-time database.
Further values from the same series stand in other lists.

Assays:
Assay in all cases: concentration in plasma after dosing
[1] = system: Rat; conditions: dosed: Perfluorooctane Sulfonate, 2 mg/kg, oral, Female, Harlan Sprague Dawley
[2] = system: Rat; conditions: 24 h; dosed: Perfluorooctane Sulfonate; 20 mg/kg; oral; Male; Harlan Sprague Dawley
[3] = system: Rat; conditions: dosed: Perfluorooctane Sulfonate, 2 mg/kg, oral, Female, Harlan Sprague Dawley; remark: listed apart in the source
[4] = system: Rat; conditions: dosed: Perfluorooctane Sulfonate, 20 mg/kg, oral, Female, F344
[5] = system: Rat; conditions: dosed: Perfluorooctane Sulfonate, 20 mg/kg, oral, Male, F344
[6] = system: Rat; conditions: 864 h; dosed: Perfluorooctane Sulfonate; 20 mg/kg; oral; Female; F344
[7] = system: Rat; conditions: 3360 h; dosed: Perfluorooctane Sulfonate; 20 mg/kg; oral; Male; Harlan Sprague Dawley
[8] = system: Rat; conditions: 1848 h; dosed: Perfluorooctane Sulfonate; 20 mg/kg; oral; Male; Harlan Sprague Dawley
[9] = system: Rat; conditions: dosed: Perfluorodecanoic acid, 20 mg/kg, oral, Male, Harlan Sprague Dawley
[10] = system: Rat; conditions: dosed: Perfluorodecanoic acid, 2 mg/kg, oral, Male, Harlan Sprague Dawley
[11] = system: Rat; conditions: dosed: Perfluorodecanoic acid, 20 mg/kg, oral, Male, Harlan Sprague Dawley; remark: listed apart in the source
[12] = system: Rat; conditions: dosed: Perfluorodecanoic acid, 20 mg/kg, oral, Female, Harlan Sprague Dawley
[13] = system: Rat; conditions: 48 h; dosed: Fluorotelomer alcohol 8+2; 40 mg/kg; oral; Female; Harlan Sprague Dawley
[14] = system: Rat; conditions: dosed: Fluorotelomer alcohol 8+2, 48 mg/kg, oral, Male, Harlan Sprague Dawley
[15] = system: Rat; conditions: dosed: Fluorotelomer alcohol 8+2, 160 mg/kg, oral, Female, Harlan Sprague Dawley
[16] = system: Rat; conditions: dosed: Fluorotelomer alcohol 8+2, 40 mg/kg, oral, Female, Harlan Sprague Dawley
[17] = system: Rat; conditions: 6 h; dosed: Perfluorooctanoic acid; 12 mg/kg; oral; Male; Harlan Sprague Dawley
[18] = system: Rat; conditions: dosed: Fluorotelomer alcohol 8+2, 24 mg/kg, oral, Male, Harlan Sprague Dawley
[19] = system: Rat; conditions: dosed: Perfluorooctanoic acid, 6 mg/kg, oral, Male, Harlan Sprague Dawley
[20] = system: Rat; conditions: dosed: Fluorotelomer alcohol 8+2, 48 mg/kg, oral, Male, Harlan Sprague Dawley; remark: listed apart in the source
[21] = system: Rat; conditions: 192 h; dosed: Fluorotelomer alcohol 8+2; 24 mg/kg; oral; Male; Harlan Sprague Dawley
[22] = system: Rat; conditions: dosed: Fluorotelomer alcohol 8+2, 12 mg/kg, oral, Male, Harlan Sprague Dawley
[23] = system: Rat; conditions: dosed: Perfluorooctanoic acid, 40 mg/kg, iv, Male, F344
[24] = system: Rat; conditions: dosed: Fluorotelomer alcohol 8+2, 160 mg/kg, oral, Female, Harlan Sprague Dawley; remark: listed apart in the source
[25] = system: Rat; conditions: dosed: Perfluorooctanoic acid, 40 mg/kg, iv, Male, F344; remark: listed apart in the source
[26] = system: Rat; conditions: 192 h; dosed: Perfluorooctanoic acid; 12 mg/kg; oral; Male; Harlan Sprague Dawley
[27] = system: Rat; conditions: 3 h; dosed: Fluorotelomer alcohol 8+2; 48 mg/kg; oral; Male; Harlan Sprague Dawley
[28] = system: Rat; conditions: 6 h; dosed: Perfluorooctanoic acid; 12 mg/kg; oral; Male; Harlan Sprague Dawley; remark: listed apart in the source
[29] = system: Rat; conditions: dosed: Perfluorooctanoic acid, 48 mg/kg, oral, Male, Harlan Sprague Dawley
[30] = system: Rat; conditions: 12 h; dosed: Fluorotelomer alcohol 8+2; 24 mg/kg; oral; Male; Harlan Sprague Dawley
[31] = system: Rat; conditions: dosed: Perfluorooctanoic acid, 320 mg/kg, oral, Female, Harlan Sprague Dawley
[32] = system: Rat; conditions: dosed: Perfluorooctanoic acid, 40 mg/kg, iv, Male, F344; remark: listed apart in the source
[33] = system: Rat; conditions: dosed: Fluorotelomer alcohol 8+2, 40 mg/kg, oral, Female, Harlan Sprague Dawley; remark: listed apart in the source

O=S(=O)([O-])C(F)(F)C(F)(F)C(F)(F)C(F)(F)C(F)(F)C(F)(F)C(F)(F)C(F)(F)F [Perfluorooctane Sulfonate]
Conditions	concentration in plasma [ng/mL]
[1], 5 min	161
[1], 192 h	4840
[1], 1200 h	2980
[3], 5 min	70.8
[3], 192 h	4150
[3], 2520 h	1230
[4], 5 min	714
[4], 192 h	66400
[4], 1200 h	25200
[5], 12 h	85000
[5], 528 h	33400

Conditions	concentration in plasma [ng/mL]
[2]	93800
[6]	32900
[7]	9590
[8]	4540

O=C(O)C(F)(F)C(F)(F)C(F)(F)C(F)(F)C(F)(F)C(F)(F)C(F)(F)C(F)(F)C(F)(F)F [Perfluorodecanoic acid]
Conditions	concentration in plasma [ng/mL]
[9], 1 h	33300
[9], 192 h	46300
[9], 2520 h	6310
[10], 6 h	7630
[10], 864 h	1300
[11], 0.5 h	22200
[11], 24 h	73200
[11], 1848 h	11300
[12], 1 h	57200
[12], 192 h	120000
[12], 2520 h	4540

O=C(O)C(F)(F)C(F)(F)C(F)(F)C(F)(F)C(F)(F)C(F)(F)C(F)(F)F [Perfluorooctanoic acid]
Conditions	concentration in plasma [ng/mL]
[13]	14.1
[17]	90300
[21]	591
[26]	43700
[27]	967
[28]	79800
[30]	898

Conditions	concentration in plasma [ng/mL]
[14], 1 h	440
[14], 24 h	1410
[15], 0.25 h	145
[15], 6 h	5200
[16], 1 h	649
[16], 24 h	76
[18], 0.75 h	135
[18], 48 h	884
[19], 1 h	29100
[19], 12 h	42700
[19], 864 h	3520
[20], 0.5 h	183
[20], 9 h	2140
[22], 1 h	264
[22], 24 h	778
[23], 0.5 h	234000
[23], 12 h	25600
[24], 0.5 min	655
[24], 9 h	2800
[25], 0.25 h	276000
[25], 6 h	77700
[25], 48 h	31.9
[29], 0.25 h	44700
[29], 12 h	246000
[29], 528 h	18800
[31], 1 h	576000
[31], 12 h	213000
[32], 0.5 h	219000
[32], 12 h	28000
[33], 0.25 h	103
[33], 6 h	882
